Data published in the supplement of paper PMC3724861.
The list shows a part of the results.

system: T1, Caupolican (Caup) homeodomain DNA-binding domain; experiment: PBM E-score (8-mer, recovered from the published 9-mer minima) (E-score (dimensionless, -0.5 to 0.5)); Drosophila protein; higher = stronger relative binding preference, active = 0.31 or more
T1 sequence: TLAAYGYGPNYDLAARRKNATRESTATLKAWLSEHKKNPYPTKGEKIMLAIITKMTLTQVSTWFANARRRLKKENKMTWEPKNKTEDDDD
Summary of the method: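 Caup's homeodomain DNA-binding domain (residues 214-303) was produced by in vitro transcription and translation and applied at 100 nM to custom-designed protein binding microarrays. Each value is an enrichment score giving relative binding preference for a short DNA word; higher means stronger. Published 9-mer scores were the minimum of their two constituent 8-mer scores, and the 8-mer values were recovered from those minima. A cutoff of 0.31 marks candidate binding sequences.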

| Sequence | PBM E-score |
| --- | --- |
| GTAAAGTA | inactive: 0.251 |
| CCGGTTAA | inactive: -0.0662 |
| CGTTACTC | inactive: 0.0391 |
| GGGGAGAA | inactive: -0.195 |
| CGCCCCCC | inactive: -0.418 |
| AGCCGGAC | inactive: -0.0745 |
| CGCAGGTA | inactive: -0.0146 |
| GCCTTCCA | inactive: -0.213 |
| AATTGGCC | inactive: -0.118 |
| ATTTATAC | inactive: 0.135 |
| ACCTAGAA | inactive: 0.08 |
| ACCTTATA | inactive: 0.0314 |
| CCAAACGG | inactive: -0.223 |
| GACCCGAC | inactive: -0.118 |
| TATCATGA | inactive: 0.116 |
| CTACCCAC | inactive: -0.155 |
| AAAGTTTG | inactive: 0.0257 |
| GCTCAGTA | ≥ 0.0973 |
| ACGAGTAA | inactive: 0.12 |
| CTTATAAC | inactive: 0.201 |
| ATACAGCG | inactive: 0.0635 |

| Sequence | PBM E-score |
| --- | --- |
| CTCGGCCA | inactive: -0.14 |
| ACACCTGC | inactive: 0.0667 |
| ATGTATTC | inactive: 0.222 |
| TCCTGTAA | inactive: 0.2 |
| ACAATTCA | inactive: 0.155 |
| GATCACCC | inactive: 0.0141 |
| CGTGCACC | inactive: -0.134 |
| ACTGCTGG | inactive: -0.2 |
| ACCTACTG | inactive: 0.0945 |
| CTGCGAGA | inactive: -0.15 |
| CTTATTAC | inactive: 0.0885 |
| ACCGTGCC | inactive: -0.0949 |
| CGGAATTC | inactive: 0.00733 |
| CACGTAGG | inactive: 0.0202 |
| ACGTACTG | inactive: 0.0839 |
| CCCGGGCG | inactive: -0.278 |
| ACGGCTCA | ≥ -0.076 |
| ATACTAAC | inactive: 0.106 |
| CAGAAGCA | inactive: 0.0288 |
| ACGTGCTC | inactive: 0.0832 |
| TCAACAGA | inactive: 0.125 |

| Sequence | PBM E-score |
| --- | --- |
| CGCAGTGC | inactive: -0.184 |
| ACGTATCG | inactive: 0.15 |
| AGCGAGAA | inactive: -0.0132 |
| CTATAAAA | inactive: 0.0732 |
| ATCGTATG | inactive: 0.129 |
| GCCTAATA | inactive: 0.0262 |
| ATGCGTCA | inactive: 0.0147 |
| CCTCATTC | inactive: -0.0598 |
| TAGACCGA | inactive: -0.00841 |
| GAAGTTCC | inactive: -0.197 |
| GAATTCTA | inactive: 0.0891 |
| GTACTCCA | inactive: 0.0363 |
| AAGTAACC | inactive: 0.0819 |
| GCGACAAC | inactive: 0.224 |
| CTGAACCC | inactive: -0.166 |
| CCAACGAA | inactive: -0.0476 |
| AGGTGCGC | inactive: -0.167 |
| CGAACCCC | inactive: -0.249 |
| ATGTTGTC | active: 0.424 |
| GGATAAAA | inactive: -0.0138 |
